{"source": "PubChem BioAssay AID488969", "about": "(Vanderbilt High Throughput Screening Facility, 2010)", "note": "Over roughly 110,000 compounds, “z-score” has its median near -0.1; the highest 2% begin near 2. Some of the results follow."}
{"target": "Metabotropic glutamate receptor 8 (Rattus norvegicus) (UniProt P70579)", "sequence (P70579 whole entry, looked up)": "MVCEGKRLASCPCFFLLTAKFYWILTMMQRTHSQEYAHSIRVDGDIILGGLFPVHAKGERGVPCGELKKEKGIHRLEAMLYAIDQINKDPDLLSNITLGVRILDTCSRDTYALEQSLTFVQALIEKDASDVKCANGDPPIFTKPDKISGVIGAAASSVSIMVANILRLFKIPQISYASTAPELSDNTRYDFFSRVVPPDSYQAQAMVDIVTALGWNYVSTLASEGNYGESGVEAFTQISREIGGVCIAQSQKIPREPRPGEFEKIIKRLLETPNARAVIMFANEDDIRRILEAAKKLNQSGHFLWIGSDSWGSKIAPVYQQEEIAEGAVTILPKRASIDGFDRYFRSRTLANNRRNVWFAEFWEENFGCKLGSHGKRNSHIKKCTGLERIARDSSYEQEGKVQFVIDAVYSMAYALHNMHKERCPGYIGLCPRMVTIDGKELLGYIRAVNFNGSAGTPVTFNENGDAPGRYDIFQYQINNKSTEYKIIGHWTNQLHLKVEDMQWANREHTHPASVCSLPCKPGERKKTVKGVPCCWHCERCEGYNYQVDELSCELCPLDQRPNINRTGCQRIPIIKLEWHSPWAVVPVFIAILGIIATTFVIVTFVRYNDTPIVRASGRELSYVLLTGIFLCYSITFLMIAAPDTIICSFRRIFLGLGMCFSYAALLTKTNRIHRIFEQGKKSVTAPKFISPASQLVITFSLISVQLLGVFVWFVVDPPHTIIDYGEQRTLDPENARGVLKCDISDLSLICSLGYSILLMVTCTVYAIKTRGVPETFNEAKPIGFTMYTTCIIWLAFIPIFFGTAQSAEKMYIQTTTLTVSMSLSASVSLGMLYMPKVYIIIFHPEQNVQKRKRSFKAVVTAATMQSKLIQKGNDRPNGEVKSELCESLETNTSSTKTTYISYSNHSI", "test": "mGluR8 Gi/Go-coupled signaling modulation – cell-based, rat, thallium flux, HTS, primary screen (AID 488969)", "conditions": "HEK293 rat mGluR8, GIRK (G protein-gated inwardly rectifying potassium channel) thallium flux, FluoZin2; at 10 µM; stronger effect = higher value; submaximal glutamate (EC20) added with thallium"}
{"compound": "O=C(c1cccc([N+](=O)[O-])c1)c1cc2ccccc2o1", "z-score": -0.0823}
{"compound": "O=C(NC1CCc2ccccc21)C12CN(Cc3ccccc3)CC1C(c1cccc([N+](=O)[O-])c1)=NO2", "note": "(centres undefined)", "z-score": -0.093}
{"compound": "CCOC(=O)C(NC(=O)c1ccc(F)cc1)(Nc1sc2c(c1C(N)=O)CCC2)C(F)(F)F", "note": "(centres undefined)", "z-score": -0.109}
{"compound": "CCn1c(SCC(N)=O)nnc1-c1ccc(S(=O)(=O)N2CCN(C)CC2)cc1", "z-score": -0.217}
{"compound": "O=C(Oc1ccc2c(=O)c(Cl)coc2c1)c1cccnc1", "z-score": 0.575}
{"compound": "O=C(CN(c1ccc(F)cc1)S(=O)(=O)c1ccc2c(c1)OCCO2)NCc1ccncc1", "z-score": 0.0449}
{"compound": "COc1ccccc1NC(=O)Cc1csc(NC(=S)Nc2ccccc2)n1", "z-score": -0.494}
{"compound": "c1ccc(-n2c(SCC3CCCCO3)nnc2-c2cnccn2)cc1", "note": "(centres undefined)", "z-score": -0.259}
{"compound": "CC(C)(NC(=O)N1CCOCC1)c1cccc(C(C)(C)NC(=O)N2CCOCC2)c1", "z-score": -0.126}
{"compound": "Clc1ccc(CSc2ncccn2)cc1", "z-score": -0.0589}
{"compound": "CC(C)COC(=O)n1c(SCC(=O)N(C)C)nc2ccccc21", "z-score": -0.139}
{"compound": "Cc1ccccc1NC(=O)c1cccc(Cn2cc(Br)c([N+](=O)[O-])n2)c1", "z-score": -0.0624}
{"compound": "Cc1ccc2cccc(S(=O)(=O)N3CCN(c4ccccc4F)CC3)c2n1", "z-score": 1.15}
{"compound": "CCOC(=O)N1CCN(C(=O)C2CCN(S(=O)(=O)CC)CC2)CC1", "z-score": 0.328}
{"compound": "COc1ccc(CN(CC(=O)NCC2CCCO2)C(=O)CCC(=O)Nc2cc(C)on2)cc1", "note": "(centres undefined)", "z-score": -0.352}
{"compound": "CCC1(C(=O)c2ccccc2)C(c2ccc([N+](=O)[O-])cc2)C1(C(=O)OC)C(=O)OC", "note": "(centres undefined)", "z-score": 0.155}
{"compound": "CCCCOc1ccc(C2C(C(=O)c3ccc(C)o3)=C(O)C(=O)N2CC2CCCO2)cc1", "note": "(centres undefined)", "z-score": 0.358}
{"compound": "COP(=O)(OC)c1nc(-c2cccc3ccccc23)oc1N1CCOCC1", "z-score": -0.168}
{"compound": "CCn1c(SCC(=O)N/N=C/c2ccc(C)o2)nnc1-c1ccc(C(C)(C)C)cc1", "z-score": -0.445}
{"compound": "COC(=O)c1ccc(CSc2nnc(CNC(=O)COc3ccc(Cl)cc3)o2)o1", "z-score": -0.282}
{"compound": "COc1ccc(OC)c(C(=O)CSc2nccc(-c3ccc(Br)cc3)n2)c1", "z-score": -0.268}
{"compound": "CC12CN(C(=O)c3ccco3)CC(c3ccccc3)(CN(C(=O)c3ccco3)C1)C2=O", "z-score": 0.0373}
{"compound": "COc1ccc(NC2=NCC(=O)N2c2ccccc2)c(OC)c1", "z-score": -0.3}
{"compound": "CCCC(CCC)C(=O)NCCN1CCOCC1", "z-score": -0.871}
{"compound": "CCOc1ccc(NC(=O)C2CCCN(C(=O)Nc3ccccc3)C2)cc1", "note": "(centres undefined)", "z-score": -0.687}
{"compound": "CCCCCCn1cnc2c(oc3nc4c(cc32)CCCC4)c1=O", "z-score": 0.165}
{"compound": "O=c1[nH]cnc2scc(-c3ccccc3)c12", "z-score": 0.259}
{"compound": "COc1ccc(N2C(=O)CSC23C(=O)N2c4c(cccc43)C(C)=CC2(C)C)cc1", "note": "(centres undefined)", "z-score": -0.0488}
{"compound": "COc1ccccc1-n1c(C)nc2cc(C(=O)O)ccc21", "z-score": -0.184}
{"compound": "COc1ccc(-n2c(O)c(Cc3ccccc3)c(=O)n3nc(-c4ccccc4)c(=O)cc23)cc1", "z-score": -0.421}
{"compound": "CS(=O)(=O)N(CC(=O)NCCSCc1c(F)cccc1Cl)c1ccc2c(c1)OCO2", "z-score": 0.461}
{"compound": "Fc1cccc(Cl)c1CSc1nnc(CN2CCOCC2)n1-c1ccccc1", "z-score": -0.0527}
{"compound": "O=C(CN(CCc1ccccc1)C(=O)CN1C(=O)COc2ccccc21)NCc1ccco1", "z-score": 1.07}
{"compound": "CCOc1ccc(-n2c(SCc3nc(-c4ccc(C)cc4)no3)nnc2-c2ccncc2)cc1", "z-score": -0.127}
{"compound": "COC(=O)c1c(C(C)=O)cnc2ccc(Br)cc12", "z-score": -0.305}
{"compound": "COc1ccccc1-n1cnnc1SCC(=O)c1cc(C)n(Cc2cccs2)c1C", "z-score": -0.41}
{"compound": "Cc1cc(N2C(=O)CC(C(C)c3ccccc3)C2=O)no1", "note": "(centres undefined)", "z-score": -0.661}
{"compound": "O=S(=O)(Nc1nc2ccccc2nc1-[n+]1ccccc1)c1ccc(Cl)cc1", "z-score": 0.161}
{"compound": "Cc1cc(S(=O)(=O)N(Cc2ccc(C(C)C)cc2)CC2CCCO2)ccc1-n1cnnn1", "note": "(centres undefined)", "z-score": 1.01}
{"compound": "COc1cccc(-c2cc(C(=O)N3CCCc4ccccc43)no2)c1", "z-score": -0.419}
{"compound": "O=C(CSc1nc2ccccc2c(=O)n1NC(=O)Cc1ccccc1)NCc1ccccc1", "z-score": 0.877}
{"compound": "COc1ccc(C(=O)CSc2nnc(Cn3cnc4ccccc43)o2)cc1", "z-score": 1.52}
{"compound": "CC1=CCC2C(=O)N(c3ccc(C)cc3)C(=O)C2C1", "note": "(centres undefined)", "z-score": 0.0494}
{"compound": "O=C(CCn1nc(-c2ccccc2)c2ccccc2c1=O)N1CCN(c2ccccc2)CC1", "z-score": -0.421}
{"compound": "CCNc1nc(Cl)nc(NCCOc2ccc(C)cc2)n1", "z-score": -0.221}
{"compound": "COc1cccc(/C=N/N2CCOCC2)c1O", "z-score": -0.354}
{"compound": "CN(CC(=O)Nc1ccc(F)c(F)c1F)C(=O)/C=C/c1ccc(Cl)cc1", "z-score": -0.265}
{"compound": "Cc1cc(C)c2cc(CN(CCO)C(=O)Nc3ccc(F)cc3)c(=O)[nH]c2c1", "z-score": -0.834}
{"compound": "CCC(CC)C(=O)Nc1cccc(C(=O)Nc2ccc3c(c2)OCO3)c1", "z-score": -0.631}
{"compound": "O=C(NCc1ccccn1)c1ccc(NC(=O)c2ccco2)cc1", "z-score": 0.138}
{"compound": "Cc1ccc(C(=O)NNC(=O)CCC(=O)Nc2cc(C)on2)cc1", "z-score": -0.0969}
{"compound": "CCOC(=O)c1cn(CC(=O)Nc2ccc3c(c2)OCCO3)nn1", "z-score": 0.293}
{"compound": "CCCS(=O)(=O)c1nc(S(=O)(=O)c2ccc(C)cc2)c(NCc2ccc3c(c2)OCO3)s1", "z-score": -0.1}
{"compound": "Cc1cc(-c2nnc(-c3ccccc3)c(-c3ccccc3)n2)c(C)o1", "z-score": -0.159}
